# According to PubChem BioAssay AID686979 (National Center for Advancing Translational Sciences (NCATS), 2013):
# Screen size: about 420,000 compounds; about 50,000 (12%) were called active. Inconclusive means that the source gave no clear call. Such entries were picked first, then a sample of the others. Calls come from the whole dose curve; as a rule, active = well fitted inhibition curve with a large enough effect; inconclusive = small, poorly fitted or top-dose-only effect; inactive = flat fitted curve, though single readings scatter. No potency is given beside an inconclusive call; the fits are too rough.
# Assay: qHTS for Inhibitors of human tyrosyl-DNA phosphodiesterase 1 (TDP1): qHTS in cells in presence of CPT; note: nearly all actives have a fitted effect of over 55% in size
# Settings: chicken DT40 Tdp1-/-;hTDP1 cells + 20 nM CPT, ATP luminescence, 48 h; series mostly up to 46.2 µM
# Outline: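 Chicken DT40 Tdp1-/- cells stably complemented with human TDP1 were seeded at 400 cells/well in medium containing 20 nM camptothecin, exposed to pin-transferred compounds, and grown at 37 °C for at least 48 hr. Viability was read as ATP luminescence.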
# Potency is the fitted concentration of half-maximal effect; tags give direction and shape of the fitted curve.
row,Structure (SMILES),Potency
1,CCOCCCNC(=S)NCCCNc1nc2c(C)cc(C)cc2cc1C#N,active: 8.2 µM
2,Cc1ccc(C(=O)Oc2cccc(NC(=O)c3ccco3)c2)cc1S(=O)(=O)N1CCC(C)CC1,"inconclusive [inhibitor, single point]"
3,COc1ccc(Nc2nnc(-c3ccc(O)cc3)c3ccccc23)cc1C(N)=O,"inconclusive [inhibitor, single point]"
4,COc1ccc(Oc2nc3c(c(=O)n(C)c(=O)n3C)n2Cc2ccccc2Cl)cc1,"inconclusive [inhibitor, single point]"
5,COc1ccccc1Cn1cc(C(=O)c2ccc(Cl)cc2)c(=O)c2cc3c(cc21)OCCO3,"inconclusive [inhibitor, single point]"
6,CCC(CC)C(=O)N1CC(=O)Nc2ccc(Br)cc2C1c1ccccc1 (configuration not stated),active: 23.1 µM
7,O=C(Nc1cc(F)ccc1F)C1CCCN(c2ncnc3c2nc2n3CCCCC2)C1 (configuration not stated),active: 14.6 µM
8,CCc1nc2c(OCc3cc(Cl)cc(Cl)c3)cccn2c1N(C)C(=O)c1ccc(C)cc1,active: 16.4 µM
9,CC1(C(=O)NS(=O)(=O)c2ccc3c(c2)CCO3)CCN1C(=O)C1(c2ccc(Cl)cc2)CC1 (configuration not stated),inactive
10,CCN(CC)C(=O)[C@H]1C[C@H](CC(=O)NCCN2CCOCC2)C(=O)N2CCc3c([nH]c4ccc(Cl)cc34)[C@]12C,"inconclusive [inhibitor, single point]"
11,CC[C@@]12C(=O)N(c3ccc(C)cc3)C(=O)N1[C@H](c1ccc(OC)cc1)[C@@H]1C(=O)N(C(C)(C)C)C(=O)[C@@H]12,inactive
12,COc1cccc(NC(=O)CSc2nnc(-c3cc(C)n(-c4ccccc4)c3C)o2)c1,"inconclusive [inhibitor, partial curve]"
13,CCCCCCn1c(=O)n2n(c1=O)C[C@]1(OC(=O)NC3CCCC3)CN(S(=O)(=O)c3ccc(C)cc3)C[C@]1(O)C2,"inconclusive [inhibitor, single point]"
14,CCCCCNC(=O)CN(c1ccc2c(c1)OCO2)S(C)(=O)=O,"inconclusive [inhibitor, full curve]"
15,NC(N)=N/N=C/c1ccc(Cl)c([N+](=O)[O-])c1,active: 11.6 µM
16,CCN(CC)C(=S)SCc1csc(CC(=O)Nc2ccccc2C)n1,"inconclusive [inhibitor, single point]"
17,OC(c1ccc(Cl)c(Cl)c1)c1ncc(-c2ccccc2Cl)[nH]1 (configuration not stated),"inconclusive [inhibitor, single point]"
18,COc1ccc(-c2noc(N3CCN(c4cccc(Cl)c4)CC3)n2)cc1OC,"inconclusive [inhibitor, single point]"
19,CCCCCCCCCCOC(=O)Cn1c(COc2cccc(C)c2)[n+](C)c2ccccc21,active: 7.31 µM
20,CC(=O)NCCNc1nc2cc(-c3cccc(C(F)(F)F)c3)sc2c(=O)n1C,"inconclusive [inhibitor, single point]"
21,Cc1ccc(OCC(=O)Nc2cc(Cl)ccc2-n2cncn2)c(C)c1,"inconclusive [inhibitor, single point]"

row,Structure (SMILES),Potency
1,COc1ccc(/C(=N/Nc2ncnc3ccccc23)C(=O)O)cc1,active: 20.6 µM
2,COc1ccc(C(=O)C2CCCN(C(=O)c3csc(SC)n3)C2)cc1F (configuration not stated),"inconclusive [inhibitor, single point]"
3,CCc1sc(Nc2ccc(Cl)cc2)nc1-c1cc2cccc(OC)c2oc1=O,"inconclusive [inhibitor, single point]"
4,CN1CCN(C(=O)c2ccc3c(c2)N(Cc2c(F)cccc2Cl)C(=O)c2ccccc2S3)CC1,"inconclusive [inhibitor, single point]"
5,O=C(NNS(=O)(=O)c1ccccc1[N+](=O)[O-])c1ccccc1[N+](=O)[O-],inactive
6,O=S(=O)(c1cccc(Cn2nnc(-c3ccc(F)cc3)n2)c1)N1CCOCC1,"inconclusive [inhibitor, single point]"
7,Cc1ccc2c(n1)sc1c(-c3ccc(Br)cc3)c(C#N)c(N)nc12,"inconclusive [inhibitor, partial curve]"
8,COc1ccc(/C=C2\SC(=S)N(CCCC(=O)N3CCOCC3)C2=O)cc1,"inconclusive [inhibitor, single point]"
9,C[C@H](/C=C/[C@H](C)C(C)(C)O)[C@H]1CC[C@H]2/C(=C/C=C3C[C@@H](O)C[C@H](O)C3)CCC[C@]12C,inactive
10,Nc1cc2sc(-c3ccc(C(=O)O)cc3)nc2cc1Cl,active: 8.2 µM
11,COc1ccc(N(CC(=O)NC2CCCCCC2)S(=O)(=O)c2c(C)nn(C)c2C)cc1,"inconclusive [inhibitor, single point]"
12,O=[N+]([O-])c1cccc(C2Nc3cccc4cccc(c34)N2)c1,"inconclusive [inhibitor, single point]"
13,Cc1ccc(C(=O)N/C(=C\c2cn(S(=O)(=O)N(C)C)c3ccccc23)C(=O)NCCCN2CCOCC2)cc1,"inconclusive [inhibitor, single point]"
14,CC(=O)c1cccc(S(=O)(=O)N2CCN(c3ccccc3F)CC2)c1,"inconclusive [inhibitor, single point]"
15,Cc1cc(N2CCN(c3cccc(C(F)(F)F)c3)CC2)n2ncnc2n1,"inconclusive [inhibitor, single point]"
16,N#C/C(=C/c1ccc(C(=O)O)cc1)C(=O)Nc1ccccc1,inactive
17,CC(C)CN1C(=O)c2ccc(NC(=O)Cc3ccccc3)cc2C1=O,inactive
18,FC(F)(F)c1nc(-c2cccs2)ncc1-c1nnnn1-c1ccc(Cl)cc1,active: 4.11 µM
19,O=C(CN1CCOCC1)Nc1ccc(S(=O)(=O)N2CCCCCC2)cc1,inactive
20,CC(C)(C)c1ccc(C(=O)NCC(c2cccs2)S(=O)(=O)c2ccc(F)cc2)cc1 (configuration not stated),active: 18.4 µM
21,CCCCC(CC)CNC(=O)c1ccc2c(=O)n(CCOC)c(=O)[nH]c2c1 (configuration not stated),"inconclusive [inhibitor, single point]"
